# Measurements reported in a collection of fitness landscapes (doi:10.1016/j.celrep.2020.107928).
# In all, about 81,000 sequences were measured (“one-hybrid fitness for binding NBS DNA”: median about -0.1, highest 2% from about 0.36 on). Some of the results follow.
# B1: Caulobacter ParB omega fusion; a variant is named by its letters at X, in order, B8GW30 (parent)
# chain: MESVVVGEPGMSEGRRGLGRGLSALLGEVDAAPAQAPGEQLGGSREAPIEILQRNPDQPRRTFREEDLEDLSNSIREKGVLQPILVRPSPDTAGEYQIVAGERAWRAAQRAGLKTVPIMVRELDDLAVLEIGIIENVQRADLNVLEEALSYKVLMEKFERTQENIAQTIGKSXSHVANXMRLLXLPDEVQSYLVSGELTAXHARAIAAAADPVALAKQIIEGGLSVRETEALARKAPNLSAGKSKGGRPPRVKDTDTQALESDLSSVLGLDVSIDHRGSTGTLTITYATLEQLDDLCNRLTRGI
# Variants of: B1
# Assay: one-hybrid fitness for binding NBS DNA (the Noc-binding site; scaled: cognate 1, non-cognate 0); higher = stronger binding
# Details: with NBS DNA site
# Method in brief: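 Values were rescaled so that cognate is 1 and non-cognate is 0. Each is a fitness, the log change in a variant's read ratio to wild type from Illumina reads of plasmids before and after selection, with three replicate libraries pooled and variants under 10 reads dropped. Selection of the Caulobacter ParB libraries, four specificity codons randomised, used E. coli USO with a HIS3 reporter, site 19 bp from the promoter, on M9-minus-histidine with 0.1 mM IPTG and 5 mM 3-AT for 48 hours at 37°C.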
row,Variant,one-hybrid fitness for binding NBS DNA
1,ANNS,≤ 0.2
2,VEQG,≤ 0.2
3,NLHV,≤ 0.2
4,TQDV,≤ 0.2
5,PFDN,≤ 0.2
6,LCRW,≤ 0.2
7,GRMY,≤ 0.2
8,VLQV,≤ 0.2
9,HQMS,≤ 0.2
10,WFQG,≤ 0.2
11,SHLE,≤ 0.2
12,VDCS,≤ 0.2
13,RLKI,≤ 0.2
14,LHSS,≤ 0.2
15,LGPG,≤ 0.2
16,RLKA,0.335
17,IDPE,≤ 0.2
18,NYRC,≤ 0.2
19,HAWM,≤ 0.2
20,AFVT,≤ 0.2
21,YKGG,≤ 0.2
22,SREN,≤ 0.2
23,LKRW,≤ 0.2
24,STPQ,≤ 0.2
25,ISPY,≤ 0.2

row,Variant,one-hybrid fitness for binding NBS DNA
1,MAKT,≤ 0.2
2,NLKK,≤ 0.2
3,VDSH,≤ 0.2
4,THMC,≤ 0.2
5,RNYC,≤ 0.2
6,LAIE,≤ 0.2
7,KKRS,0.324
8,SFNG,≤ 0.2
9,SHGL,≤ 0.2
10,TDSY,≤ 0.2
11,SDGQ,≤ 0.2
12,MCCL,≤ 0.2
13,HLGD,≤ 0.2
14,RATQ,≤ 0.2
15,QSTW,≤ 0.2
16,NCHT,≤ 0.2
17,VKVF,≤ 0.2
18,SDHR,≤ 0.2
19,CYWS,≤ 0.2
20,YISR,≤ 0.2
21,PPAF,≤ 0.2
22,EADY,≤ 0.2
23,PSVV,≤ 0.2
24,SAKE,≤ 0.2
25,RPQL,≤ 0.2

row,Variant,one-hybrid fitness for binding NBS DNA
1,VAQY,≤ 0.2
2,PDPC,≤ 0.2
3,PRHP,≤ 0.2
4,QQWM,≤ 0.2
5,MVSL,0.305
6,QRQG,0.366
7,TGTC,≤ 0.2
8,IQNA,≤ 0.2
9,QLRC,0.337
10,THIT,≤ 0.2
11,RKHA,0.311
12,QLHR,0.519
13,ATEP,≤ 0.2
14,FRQG,≤ 0.2
15,QAFH,≤ 0.2
16,SHDM,≤ 0.2
17,VMLC,≤ 0.2
18,QGNF,≤ 0.2
19,PDST,≤ 0.2
20,AKIR,≤ 0.2
21,YCDR,≤ 0.2
22,CRTF,≤ 0.2
23,SVHI,≤ 0.2
24,QYIS,0.202
25,WYLC,≤ 0.2

row,Variant,one-hybrid fitness for binding NBS DNA
1,DTLT,≤ 0.2
2,YPTN,≤ 0.2
3,SINF,≤ 0.2
4,DNPR,≤ 0.2
5,VEPC,≤ 0.2
6,WCQR,≤ 0.2
7,RGCL,≤ 0.2
8,YMIG,≤ 0.2
9,TPTH,≤ 0.2
10,PFHT,≤ 0.2
11,KKVH,≤ 0.2
12,RSAH,≤ 0.2
13,QHWR,0.363
14,TPGF,≤ 0.2
15,NDTG,≤ 0.2
16,LPEG,≤ 0.2
17,WMHR,≤ 0.2
18,PYMD,≤ 0.2
19,HSHA,≤ 0.2
20,PDML,≤ 0.2
21,CAHN,≤ 0.2
22,ELSG,≤ 0.2
23,KNNM,≤ 0.2
24,QNAD,≤ 0.2
25,CYIS,≤ 0.2

row,Variant,one-hybrid fitness for binding NBS DNA
1,MIRK,≤ 0.2
2,CSAK,≤ 0.2
3,HYTE,≤ 0.2
4,QAPK,≤ 0.2
5,DDHV,≤ 0.2
6,KLKR,0.319
7,LTGD,≤ 0.2
8,MPMG,≤ 0.2
9,KYQG,≤ 0.2
10,STLT,≤ 0.2
11,TTIK,≤ 0.2
12,SQQG,≤ 0.2
13,SFSA,≤ 0.2
14,NMSR,≤ 0.2
15,MTAN,≤ 0.2
16,RIYY,≤ 0.2
17,HGST,≤ 0.2
18,QQQG,≤ 0.2
19,MPKY,≤ 0.2
20,PNLY,≤ 0.2
21,ANVT,≤ 0.2
22,PEYI,≤ 0.2
23,QWTI,≤ 0.2
24,MLLV,≤ 0.2
25,EQSN,≤ 0.2

row,Variant,one-hybrid fitness for binding NBS DNA
1,NKIC,≤ 0.2
2,RGRF,≤ 0.2
3,DKAK,≤ 0.2
4,MEVR,≤ 0.2
5,QMCM,≤ 0.2
6,PERC,≤ 0.2
7,QPSW,≤ 0.2
8,HEES,≤ 0.2
9,LWVP,≤ 0.2
10,NTHH,≤ 0.2
11,QCAV,≤ 0.2
12,SPKK,≤ 0.2
13,DHGS,≤ 0.2
14,IDGS,≤ 0.2
15,QRQS,0.688
16,DVLC,≤ 0.2
17,MNVG,≤ 0.2
18,QTAN,0.217
19,PPNC,≤ 0.2
20,MNYA,≤ 0.2
21,SCPN,≤ 0.2
22,IETY,≤ 0.2
23,QFTN,≤ 0.2
24,GWSG,≤ 0.2
25,KRSC,≤ 0.2

row,Variant,one-hybrid fitness for binding NBS DNA
1,YKHT,≤ 0.2
2,ASYT,≤ 0.2
3,PDVV,≤ 0.2
4,KLYM,≤ 0.2
5,TAFN,≤ 0.2
6,RNYP,≤ 0.2
7,VHSM,≤ 0.2
8,ADDA,≤ 0.2
9,QVTQ,≤ 0.2
10,NPRC,≤ 0.2
11,KHKY,≤ 0.2
12,NDWG,≤ 0.2
13,YMTV,≤ 0.2
14,YMCR,≤ 0.2
15,HGNV,≤ 0.2
16,PLNM,≤ 0.2
17,TESP,≤ 0.2
18,FYES,≤ 0.2
19,LVSY,≤ 0.2
20,TLYR,≤ 0.2
21,WVTA,≤ 0.2
22,CSSN,≤ 0.2
23,LKCS,≤ 0.2
24,QPLC,≤ 0.2
25,EFNT,≤ 0.2

row,Variant,one-hybrid fitness for binding NBS DNA
1,MAAM,≤ 0.2
2,NSKV,≤ 0.2
3,MHRF,≤ 0.2
4,SPRV,≤ 0.2
5,PCVV,≤ 0.2
6,APNV,≤ 0.2
7,LPPG,≤ 0.2
8,HFML,≤ 0.2
9,FVGS,≤ 0.2
10,GDKS,≤ 0.2
11,EQMM,≤ 0.2
12,FKTC,≤ 0.2
13,ETPN,≤ 0.2
14,GDWT,≤ 0.2
15,MELG,≤ 0.2
16,STVH,≤ 0.2
17,KSGR,≤ 0.2
18,HHVE,≤ 0.2
19,CLIW,≤ 0.2
20,DAAS,≤ 0.2
